The campaign covered roughly 150,000 compounds. About 540 (0.36%) showed an effect of 50% or more. The list shows a part of the results.
Test system: Plasmodium falciparum
Test: Primary screen in NF54 nanoGlo assay, in single point, at 2uM, 72h; a lower Z score goes with more inhibition
Format: functional, Erythrocyte
Details: timepoint 72 hour

| Compound | % Inhibition | Z score |
| --- | --- | --- |
| Cc1ccc(OCC(=O)Nc2noc(-c3cccc4ccccc34)n2)cc1 | 0% | 0.01 |
| CCOC(=O)N1CCC(NC(=O)C2CCCCC2C(=O)N2CCc3ccccc32)CC1 (stereo unspecified) | 8% | -1.49 |
| COc1ccc(C[C@](C)(O)CNC(=O)c2ccc3c(c2)OCO3)cc1 | -14% | 2.33 |
| CNC(=O)c1cc(NC(=O)N2CCCC[C@@H]2CN2CCCC2)ccc1OC | -9% | 1.52 |
| CS(=O)(=O)Nc1nc2ccc(NC(=O)c3cc(-c4ccccc4)nc4ccccc34)cc2s1 | 48% | -4.83 |
| Cc1cc(N2CCC(NC(=O)c3ncccn3)CC2)n[nH]1 | 9% | -1.13 |
| CN(C)[C@H]1CCN(CC(=O)NCc2ccccc2C(F)(F)F)C1 | 3% | -0.65 |
| CCCc1noc(Cn2nc(C)nc2-c2ccccn2)n1 | 3% | -0.4 |
| Cc1ccc(C(=O)NC[C@@]23CNC[C@]2(C(F)(F)F)C3)cc1 | -6% | 0.87 |
| CN1c2ccc(F)cc2OC[C@@H]1CC(=O)NCc1ccc(F)cc1 | -13% | 2.28 |
| Cc1nn(C)c2nc(N3C[C@H]4CCN(C)[C@H]4C3)sc12 | 16% | -2.13 |
| Cn1nc2nc(N3CCN(Cc4ccc(F)cc4)CC3)nc(-c3ccc(F)c(Cl)c3)c2c1N | -6% | 0.81 |
| CN1CC(=O)N(Cc2nc(C3CCCC3)nn2CC(F)(F)F)C1=O | -12% | 1.38 |
| CCN(CC)C(=O)c1cc(C)cc(C)c1 | -13% | 1.46 |
| O=C(C[C@@]1(O)C(=O)N(CN2CCOCC2)c2ccccc21)c1ccc2c(c1)CCCC2 | 4% | -0.48 |
| COc1cccc(Cn2cnc3c(c2=O)COCC3)c1Cl | 14% | -1.84 |
| CCC1(CC)CNC(=O)[C@H]1NC(=O)CCc1ccc(F)cc1 | -10% | 1.8 |
| O=c1ccc(-c2nnco2)cn1CN1CCN(S(=O)(=O)c2ccccc2)CC1 | -5% | 1.04 |
| CCOc1ccc(C(=O)Nc2cnc(-n3nc(C)cc3C)nc2)cc1 | -6% | 0.93 |
| COc1cc2ccc1Oc1cccc(c1)CO[C@H]1CN(C(=O)c3cc[nH]n3)C[C@@H]1NC(=O)CN(C1CC1)C(=O)CC2 | 7% | -0.91 |
| Clc1ccc(O[C@H]2CCNC2)cc1Cl | 10% | -1.46 |

| Compound | % Inhibition | Z score |
| --- | --- | --- |
| C[C@@H](c1nnnn1C1CC1)N1CCN(CC(=O)N(C)C2CCCCC2)CC1 | 6% | -1.09 |
| Brc1cnn(Cc2cc(-c3ccccc3)on2)c1 | -34% | 3.99 |
| C[C@H]1CS(=O)(=O)CCN1CC(=O)N(C)C1CCCCC1 | -8% | 1.27 |
| O=C(NC1CC1)C1CCN(C2CCN(C(=O)C#Cc3ccccc3)CC2)CC1 | 0% | -0.02 |
| CCOC1CC(NC(CC)CC#N)C12CCC2 (stereo unspecified) | 1% | -0.16 |
| COc1cc(N2CCC3(CC2)[C@H](O)C[C@@H]3OC)nc(N)n1 | -19% | 3.8 |
| CNc1nc(C)ccc1C(=O)N1C[C@@H](C)[C@H](C(N)=O)C1 | -11% | 1.27 |
| O=C(Cc1ccc(-n2cnnc2)cc1)N[C@H]1C[C@H](Oc2ccccc2)C1 | 5% | -0.93 |
| O=C(Cc1ccccc1)N(c1ccc2oc(=O)sc2c1)S(=O)(=O)c1ccc(Cl)c(Cl)c1 | -25% | 3.14 |
| CCc1ccc(CN2CCC(C(=O)O)(n3ccc(C(C)(C)C)n3)CC2)o1 | 2% | -0.14 |
| O=C(CCc1ccccn1)N[C@H]1CNCCC1(F)F | 3% | -0.37 |
| CCn1ncc2cc(C(=O)Nc3cn(C)c(=O)n(C)c3=O)c(C)nc21 | 3% | -0.38 |
| O=C(C1CCCC(F)(F)C1)N1CCCC(Oc2ncccc2F)C1 (stereo unspecified) | 8% | -1.15 |
| CC[C@@H]1Oc2ccc(C(=O)n3nc(C)cc3C)cc2N(Cc2ccccc2)C1=O | -12% | 1.34 |
| NC(=O)c1ccc(NC(=O)CC2(C(=O)O)Cc3ccccc3C2)cc1 | -13% | 1.08 |
| O=C1C[C@@H](C(=O)Nc2ccccc2F)n2ncc(-c3ccccc3)c2N1 | 6% | -0.95 |
| Nc1cccc(CC(=O)N2CCOC3CCCCC32)c1 (stereo unspecified) | -8% | 1 |
| O=C(COc1cccnc1)N[C@H]1CCCC[C@H]1CC(F)(F)F | -7% | 0.97 |
| CC(=O)N1CCC[C@](c2nnnn2CCC(C)C)(N2CCN(C(C)C)CC2)C1 | -9% | 1.07 |
| CCCc1nc(CNC(=O)c2cc[nH]c2C)cs1 | -17% | 1.49 |
| CN(CCCC1CCCC1)Cc1cc(=O)[nH]c(=O)[nH]1 | -2% | 0.31 |

| Compound | % Inhibition | Z score |
| --- | --- | --- |
| Cc1nnc(CN[C@H]2CC(C)(C)OC2(C)C)n1C1CC1 | -10% | 1.51 |
| Fc1ccc(Br)c(CNC2C[C@@H]3COC[C@H]23)c1 (stereo partly specified) | -9% | 1.68 |
| CCn1cc(-c2nn(C)cc2C(=O)N2CCN3C(=O)NC(=O)[C@@H]3C2)cn1 | 21% | -2.41 |
| COc1ccccc1-c1noc(C[C@H]2CCOc3ccccc32)n1 | -3% | 0.41 |
| O=C(NCCn1c(-c2ccccc2)nc2ccccc21)Nc1cccc(F)c1 | -9% | 1.19 |
| CCc1nccn1CCN1CCCC[C@@H]1CCO | -4% | 0.51 |
| Cc1cc(NC(=O)N2CCn3nc(C(F)(F)F)cc3C2)cc(C)n1 | -1% | 0.27 |
| CN(C)C(=O)COC(=O)c1ccc(O)cc1O | 21% | -2.87 |
| Cc1ccc(=O)n(CC(=O)N2CCC(Cc3ccccc3)CC2)n1 | 13% | -1.74 |
| CC[C@@H]1CCO[C@@H]1C(=O)Nc1cccc(CC(=O)O)c1 | 5% | -0.75 |
| O=C(N[C@H]1CCN(C2CCCCC2)C1)c1cccnn1 | -14% | 2.16 |
| CC(C)C1CC(Nc2nnc(C(F)F)o2)CCO1 (stereo unspecified) | -14% | 1.99 |
| O=C(CN1CCCN(c2ccc(C(F)(F)F)cn2)CC1)Nc1ccnn1Cc1cccs1 | -1% | 0.16 |
| Cn1c(CN2CCCCCC2)nnc1C1CCN(C2CCCC2)CC1 | 3% | -0.49 |
| O=C(O)c1ccc2c(c1)CN(C[C@H](O)c1ccc(Cl)cc1)CC2 | -8% | 1.18 |
| Cc1c(Nc2ccc(S(=O)(=O)N3CCOCC3)cc2Cl)c(=O)n(-c2ccccc2)n1C | -1% | 0.14 |
| CCN(CC)C(=O)[C@@H]1CCCN1Cc1ccsc1 | -5% | 0.71 |
| CC1=C(C(=O)N2CCOCC2)[C@H](c2ccccc2Cn2cccn2)NC(=O)N1 | -21% | 2.08 |
| Cc1cc(CN(C)C(=O)c2ccc3nc(C4CCCCC4)oc3c2)n[nH]1 | -5% | 0.9 |
| CCCc1cc(NC(=O)NCCn2cc(C(=O)OC)nn2)n(C)n1 | -3% | 0.27 |
| CCCN(CCC)S(=O)(=O)c1cc(-c2c(C)nn3c2NC(=O)CCC3=O)ccc1OC | -11% | 1.32 |

| Compound | % Inhibition | Z score |
| --- | --- | --- |
| O=C(NCc1ccsc1)N1CCC[C@H](CN2CCOCC2)C1 | 0% | -0.04 |
| CCn1nnc2c(N3CCN(C(=O)NCCc4ccc(OC)cc4)CC3)ncnc21 | 4% | -0.64 |
| O=C(c1ccccc1Cl)N1N=C(C2CCCCC2)C[C@]1(O)C(F)(F)F | -14% | 1.54 |
| CC(C)(C)n1cc(CN2CCO[C@H](c3cc(F)c(Cl)cc3Cl)C2)nn1 | -3% | 0.35 |
| O=C(NC1CC2CCC1O2)NC1CC1c1ccc(F)cc1F (stereo unspecified) | 4% | -0.58 |
| Cc1ccccc1C(=O)N[C@@H]1CCCC[C@H]1NC(=O)C1CCCN(C(=O)C2CCCC2)C1 (stereo partly specified) | -6% | 0.54 |
| COc1ccc(N2CCN(C(=O)c3ncn(C[C@H](O)c4ccccc4)n3)CC2)cc1 | 5% | -0.59 |
| CCCc1ccc(-c2cc(NC(=O)[C@@H]3CCCO3)n(CCO)n2)cc1 | -1% | 0.13 |
| COc1ccccc1N1C(=O)C2C(C)NC3(C(=O)N(CC(=O)N4CCOCC4)c4ccccc43)C2C1=O (stereo unspecified) | -4% | 0.6 |
| COCCc1nc(CCn2nnnc2C)n(-c2cc(Cl)ccc2OC)n1 | -20% | 1.87 |
| COCC[C@H]1CN(Cc2nncn2C(C)C)CCO1 | 9% | -1.23 |
| Cc1cc(C(=O)N2CCC[C@H]2C(=O)NCC2CCOCC2)c2nccc(C)c2c1 | 0% | -0.05 |
| CC(C)(C)OC(=O)NCCNC(=O)Nc1cc(C2CC2)nn1-c1ccccc1 | 3% | -0.55 |
| COc1ccc(CN(CCN2CCOCC2)C[C@H](O)COCc2ccccc2)cc1OC | 6% | -1.13 |
| CC(=O)N[C@@H]1c2ccccc2C2(CCN(C(=O)Cc3ccccc3F)CC2)[C@H]1OCc1ccncc1 | -5% | 0.74 |
| Cc1cccc(NC(=O)N2CC(C)C2C)n1 (stereo unspecified) | 18% | -2.84 |
| CC(C)(O)[C@H]1CCN(C(=O)CCc2cccnc2)C1 | -8% | 1.55 |
| COc1cncc(O[C@H]2CCCN(C(=O)c3ccsc3)C2)n1 | -5% | 0.82 |
| Cc1ccc2nc(COc3cccc(C(=O)N4C[C@@H](CO)[C@H](C)C4)c3)cn2c1 | -17% | 2.15 |
| Cc1[nH]c2c(CN(CCN(C)C)C[C@H]3CCCO3)cccc2c1C | -6% | 1.03 |
